Measured values published in PubChem BioAssay AID886 (National Center for Advancing Translational Sciences (NCATS), 2007).
Values joined by “and” are separate entries in the source; they are usually repeats but may differ in a detail not shown here. Equal entries are not always repeated. Screen size: about 73,000 compounds; about 2,500 (3.4%) were called active. The inconclusive results got no clear call from the source; some entries with a clear call stand among them for comparison. Calls come from the whole dose curve; as a rule, active = well fitted inhibition curve with a large enough effect; inconclusive = small, poorly fitted or top-dose-only effect; inactive = no such curve, though single readings can be large or run the other way. Where the call is inconclusive, the potency comes from a doubtful curve fit.

Molecular target: 3-hydroxyacyl-CoA dehydrogenase type-2 (Homo sapiens) (UniProt Q99714)
Assay: qHTS Assay for Inhibitors of HADH2 (Hydroxyacyl-Coenzyme A Dehydrogenase, Type II); note: nearly all actives have a fitted effect of over 60% in size
Settings: recombinant HADH2, NADH fluorescence, beta-hydroxybutyryl-CoA; activity change, negative = inhibition: at 57.1 µM (top of the series)
In short: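 Activity measured as NADH fluorescence gain (360/450 nm), taken as the change between first and last reads of a 4-min kinetic run. Conditions: pH 9.0 Tris buffer, 20 nM E. coli-expressed His-tagged enzyme, 1 mM NAD+, 90 uM beta-hydroxybutyryl-CoA; 15-min compound preincubation.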
% is set by controls: 0 for no effect and ±100 for the full control effect; potency is the fitted concentration of half-maximal effect; tags give direction and shape of the fitted curve.

Sequence of UniProt Q99714 (Q99714 whole entry, looked up): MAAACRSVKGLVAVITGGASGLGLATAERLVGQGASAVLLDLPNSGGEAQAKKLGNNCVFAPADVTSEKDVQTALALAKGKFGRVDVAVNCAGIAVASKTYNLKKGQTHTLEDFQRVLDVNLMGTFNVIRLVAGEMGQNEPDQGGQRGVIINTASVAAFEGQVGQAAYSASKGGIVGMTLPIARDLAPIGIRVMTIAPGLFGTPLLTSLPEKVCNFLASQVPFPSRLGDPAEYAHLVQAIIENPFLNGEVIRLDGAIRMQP
Sequence of UniProt Q99714 (Q99714 whole entry, looked up): as above

SMILES | Potency | activity change, negative = inhibition
COc1ccc2c(c1)cc(C(=O)O)n2C | inconclusive: 39.8 µM [inhibitor, single point] | –
C=CCn1c(N)c(C(=O)N2CCOCC2)sc1=S | inconclusive: 31.6 µM [inhibitor, single point] | –
CC12CCC(C(=O)n3c1nc1ccccc13)C2(C)C (stereo not drawn) | inactive | –
O=C(Nc1ccccc1)C1=C(O)CC(c2ccco2)CC1=Nc1ccccc1 (stereo not drawn) | active: 25.1 µM | –
N#Cc1c2n(cnc1=O)CCCCC2 | inconclusive: 1 µM [inhibitor, full curve, poor fit] | –
O=C(c1cc(-c2ccco2)on1)N1CCc2ccccc2C1 | inconclusive: 20 µM [inhibitor, partial curve] | –
CCCN[C@@H](C)C(=O)Nc1c(C)csc1C(=O)OC | inactive | –
CC(C)Sc1nnc([C@H](C)NC(=O)OC(C)(C)C)o1 | inconclusive: 39.8 µM [inhibitor, single point] | –
Cc1noc(COc2ccc(OCc3nc(C)no3)cc2)n1 | inconclusive: 6.31 µM [inhibitor, single point] | –
CSc1nsc(SC)c1NC(=O)OCc1ccccc1 | inconclusive: 31.6 µM [inhibitor, single point] | –
N#CC1=C2SCN(c3ccccc3)CN2C(=O)CC1c1ccccc1Cl (stereo not drawn) | active: 1.58 µM | –
CCOC(=O)CNC(=O)c1c2c(nc3ccccc13)CCCC2 | inconclusive: 15.8 µM [inhibitor, partial curve] | –
CCOC(=O)C1=C(C)N=c2s/c(=C/c3ccco3)c(=O)n2C1c1cccc(OC)c1 (stereo not drawn) | active: 20 µM | –
CCN1CCCC1CNC(=O)c1cc2c(-c3ccc(Cl)cc3)nn(C)c2s1 (stereo not drawn) | inconclusive: 39.8 µM [inhibitor, single point] | –
CCN(CC)c1ccc2c(C)c(CN3CCOCC3)c(=O)oc2c1 | active: 31.6 µM | –
CC(C)(C)OC(=O)N1CCC[C@@H]1C(=O)N1CCC(C(=O)O)CC1 | inconclusive: 31.6 µM [inhibitor, single point] | –
CCc1c(C)n2nc(C)cc2[nH]c1=O | inconclusive: 25.1 µM [inhibitor, single point] | –
O=C1CC(N(O)c2ccccc2)C(=O)N1c1cc(Cl)cc(Cl)c1 (stereo not drawn) | inconclusive: 39.8 µM [inhibitor, single point] | –
Cc1occc1C(=O)NC1CCCc2ccccc21 (stereo not drawn) | active: 25.1 µM | –
CCOC(=O)Cn1c(C(C)=O)nc2ccccc21 | inconclusive: 25.1 µM [inhibitor, single point] | –
NC(=O)CSC1=Nc2ccccc2C2=NC(CCC(=O)NCc3ccc(F)cc3)C(=O)N12 (stereo not drawn) | active: 31.6 µM | –
Cc1cc(C)c2cc(CN(CCO)C(c3nnnn3Cc3ccc(F)cc3)C(C)C)c(=O)[nH]c2c1 (stereo not drawn) | inactive | –
COc1ccc(NC(=O)N2CCC3(CC2)CCN(C(=O)c2cccn2C)CC3)cc1 | inactive | –
O=S(=O)(c1cccc(-c2nc3n(n2)Cc2ccccc2-3)c1)N1CCCC1 | inconclusive: 1.58 µM [inhibitor, single point] | –
COC(=O)c1sc(NC(=O)Cc2cccs2)nc1C | inactive | –

SMILES | Potency | activity change, negative = inhibition
COc1ccc(OC)c(C2CC(=O)N3CN(c4ccccc4)CSC3=C2C#N)c1 (stereo not drawn) | inconclusive: 1.58 µM [inhibitor, full curve] | –
CC(=O)Nn1c(COc2ccccc2C)nc2ccccc2c1=O | inconclusive: 6.31 µM [inhibitor, single point] | –
O=c1cc(O)nc(SC23CC4CC(CC(C4)C2)C3)[nH]1 | inconclusive: 39.8 µM [inhibitor, single point] | –
N#Cc1c(N)n(CCNC(=O)c2cccs2)c2nc3ccccc3nc12 | inconclusive: 15.8 µM [inhibitor, partial curve] | –
COc1ccc(N2Cc3cccc(C(=O)N4CCN(C(=O)c5ccco5)CC4)c3C2=O)cc1 | inconclusive: 39.8 µM [inhibitor, single point] | –
Cc1cc(OCC(=O)NCCCN2CCOCC2)cc(C)c1Cl | inactive | –
CN1CCc2c(sc3nc(SCC(N)=O)n(-c4ccccc4)c(=O)c23)C1 | inconclusive: 7.94 µM [inhibitor, partial curve] | –
CN1CCN(CCCNC(=O)c2cn(C3CCCCC3)c(=O)c3c2c2ccccc2n3C)CC1 | inconclusive: 39.8 µM [inhibitor, single point] | –
Cc1ccc(C(N)=S)c(C)c1 | inactive | –
CCCCCCCCCCCCCCSCC(=O)O | inconclusive: 5.01 µM [inhibitor, full curve, poor fit] | –
CCS(=O)(=O)Nc1ccc(C(=O)CC2(O)C(=O)Nc3ccccc32)cc1 (stereo not drawn) | inconclusive: 39.8 µM [inhibitor, single point] | –
COCCOC(=O)C1=C(C)NC2=C(C(=O)CC(C)(C)C2)C1c1cc2c(cc1Br)OCO2 (stereo not drawn) | inconclusive: 31.6 µM [inhibitor, single point] | –
CC(C)NC(=O)CCCn1c(=S)[nH]c2cc3c(cc2c1=O)OCO3 | inconclusive: 20 µM [inhibitor, single point] | –
O=C(NCCN1CCOCC1)NC1(C(F)(F)F)Oc2ccccc2O1 | inconclusive: 39.8 µM [inhibitor, single point] | –
O=c1c2ccccc2nc2n1CCc1c-2[nH]c2ccccc12 | inconclusive: 25.1 µM [inhibitor, single point] | –
CC(C)C1O/C(=N/C(=O)Nc2ccc(Cl)c(Cl)c2)NC1=O (stereo not drawn) | inactive | –
CCc1[nH]nc2c1C(c1cccc(OC(=O)N3CCOCC3)c1)C(C#N)=C(N)O2 (stereo not drawn) | inactive | –
O=C(NCc1ccco1)Oc1ccccc1 | inconclusive: 7.94 µM [inhibitor, single point] | –
Nc1ccccc1-c1nc2ccccc2[nH]1 | active: 25.1 µM | –
O=c1c2ccccc2n2cnnc2n1-c1ccccc1 | inactive | –
Cn1c(-c2ccc3nc(N)sc3c2)nc2cc(N)ccc21 | inconclusive: 12.6 µM [inhibitor, partial curve] | –
CCOC(=O)c1oc2ccccc2c1NC(=O)c1cccc(OC)c1 | inconclusive: 31.6 µM [inhibitor, single point] | –
O=C(CSc1nnc(C2CC2)n1Cc1ccccc1)c1cc2ccccc2o1 | inconclusive: 39.8 µM [inhibitor, single point] | –
O=C1OCc2cccc3cccc1c23 | active: 25.1 µM | –
COc1ccc(OC)c(C(=O)CSc2nnc(-c3ccc(OC)c(OC)c3)o2)c1 | inconclusive: 25.1 µM [inhibitor, single point] | –

SMILES | Potency | activity change, negative = inhibition
O=C(O)c1cc2c([nH]c1=O)CCCC2 | inconclusive: 25.1 µM [inhibitor, partial curve] | –
c1ccc2c(c1)CNc1ccccc1C2 | inconclusive: 39.8 µM [inhibitor, single point] | –
Cc1ccc(C)c(OCC(=O)Nc2nonc2NC(=O)COc2cc(C)ccc2C)c1 | inconclusive: 31.6 µM [inhibitor, single point] | –
Cc1cc(Nc2cccc(F)c2)nc(-c2ccccc2O)n1 | inconclusive: 31.6 µM [inhibitor, single point] | –
CCOC(=O)c1cnc(-c2ccccc2)nc1N | inactive | –
O=C(CSC1=NS(=O)(=O)c2ccccc21)Nc1ccccc1 | inconclusive: 0.501 µM [inhibitor, full curve, poor fit] | –
COc1ccc(CNc2cc(-c3ccccc3OC)ncn2)c(OC)c1 | inconclusive: 25.1 µM [inhibitor, single point] | –
Cc1cc(C)c2c(n1)nn1c(-n3ccnc3)cc(C)nc21 | inactive | –
CCc1nnc(NC(=O)C2CC(=O)N(c3ccc(C)cc3)C2)s1 (stereo not drawn) | inconclusive: 39.8 µM [inhibitor, single point] | –
Nc1nc(N)c(-c2cccc(C(F)(F)F)c2)c(Cc2cccc(C(F)(F)F)c2)n1 | – | inactive: 7.88% [at 11.4 µM]
Cc1ccc(S(=O)(=O)N2CCCC2C(=O)NCCc2nc3ccccc3[nH]2)cc1 (stereo not drawn) | inconclusive: 1.26 µM [inhibitor, single point] | –
C/C(Cl)=C/Cn1c(NCCCn2ccnc2)nc2c1c(=O)[nH]c(=O)n2C | inactive | –
CCc1c(C)sc(NC(=O)c2cc(C)no2)c1C#N | inconclusive: 20 µM [inhibitor, single point] | –
O=C1C[C@@H](O)[C@@H](O)[C@H]2[C@@H]3C(=O)N(C[C@@H]4CCCO4)C(=O)[C@@H]3CC[C@H]12 | – | inactive: -3.03% [at 11.4 µM] and inactive: -1.75% [at 11.4 µM]
COc1ccc(CN2CCN(c3cc(C)nc4c5c(C)cc(C)nc5nn34)CC2)cc1F | inconclusive: 39.8 µM [inhibitor, single point] | –
COc1ccc2c(c1)C1(Nc3ccccc3-c3nc4ccccc4n31)C(=O)N2 (stereo not drawn) | inactive | –
Cc1ccc(CSC2=Nc3ccccc3C3=NC(CC(=O)NCc4ccco4)C(=O)N23)cc1 (stereo not drawn) | inconclusive: 39.8 µM [inhibitor, single point] | –
O=C(O)CCC(=O)N1CCN(c2ccc(C(=O)c3ccc(F)cc3)cc2)CC1 | inconclusive: 1.26 µM [inhibitor, full curve, poor fit] | –
Cc1ccccc1NS(=O)(=O)c1ccc2[nH]cc(C(=O)N(C)Cc3ccco3)c(=O)c2c1 | inconclusive: 25.1 µM [inhibitor, single point] | –
Cc1ccc(NC2=NCC(=O)N2Cc2ccc3c(c2)OCO3)cc1 | inactive | –
c1ccc2c(c1)Cc1cc3ccccc3nc1-2 | inactive | –
COc1nc(-c2ccccc2)ccc1-c1noc(-c2ccc(F)cc2)n1 | active: 6.31 µM | –
Cc1cccc(NC(=O)c2cnc3scc(C)n3c2=O)c1 | inconclusive: 6.31 µM [inhibitor, single point] | –
